Screen size: about 310,000 compounds; about 2,200 (0.71%) showed an effect of 50% or more. The effect is printed as a negative number. The list shows a part of the results.

In this assay the target is human ether-à-go-go-related gene (hERG) potassium channel (human, UniProt Q12809). Kind of assay: primary screen, population patch clamp on CHO cells stably expressing hERG.
human ether-à-go-go-related gene (hERG) potassium channel, sequence (Q12809 whole entry, looked up): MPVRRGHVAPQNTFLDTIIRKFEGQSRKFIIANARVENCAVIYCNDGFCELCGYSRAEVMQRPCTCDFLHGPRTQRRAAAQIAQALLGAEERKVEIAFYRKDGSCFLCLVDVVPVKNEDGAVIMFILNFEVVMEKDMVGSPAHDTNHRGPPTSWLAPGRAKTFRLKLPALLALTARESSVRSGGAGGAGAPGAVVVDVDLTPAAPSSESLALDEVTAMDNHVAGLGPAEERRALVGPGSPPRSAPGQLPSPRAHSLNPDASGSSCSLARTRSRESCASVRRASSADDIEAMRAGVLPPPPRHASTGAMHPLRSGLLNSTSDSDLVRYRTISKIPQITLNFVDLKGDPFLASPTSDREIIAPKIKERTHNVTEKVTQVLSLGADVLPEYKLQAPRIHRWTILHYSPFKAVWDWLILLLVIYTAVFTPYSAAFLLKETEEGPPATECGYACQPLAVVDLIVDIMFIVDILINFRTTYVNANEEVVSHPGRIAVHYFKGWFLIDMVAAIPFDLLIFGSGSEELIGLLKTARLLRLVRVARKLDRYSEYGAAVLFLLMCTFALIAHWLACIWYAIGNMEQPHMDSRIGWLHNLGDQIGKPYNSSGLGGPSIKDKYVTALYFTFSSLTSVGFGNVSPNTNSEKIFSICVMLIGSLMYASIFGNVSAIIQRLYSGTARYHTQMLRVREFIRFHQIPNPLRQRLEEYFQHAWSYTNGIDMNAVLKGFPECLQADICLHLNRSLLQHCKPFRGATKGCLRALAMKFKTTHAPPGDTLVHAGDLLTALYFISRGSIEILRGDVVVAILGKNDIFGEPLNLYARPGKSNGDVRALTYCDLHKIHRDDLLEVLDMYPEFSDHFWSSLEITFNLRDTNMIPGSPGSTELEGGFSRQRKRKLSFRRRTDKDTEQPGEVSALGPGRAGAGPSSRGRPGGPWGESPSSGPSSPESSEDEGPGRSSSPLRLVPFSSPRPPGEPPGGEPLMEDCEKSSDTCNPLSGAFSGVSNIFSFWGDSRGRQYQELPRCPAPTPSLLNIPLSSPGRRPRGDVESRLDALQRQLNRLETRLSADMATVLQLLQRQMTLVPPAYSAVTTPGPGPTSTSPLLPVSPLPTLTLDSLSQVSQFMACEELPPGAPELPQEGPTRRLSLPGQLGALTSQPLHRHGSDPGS
Regarding `Cc1noc(C)c1COC(=O)C(c1ccccc1)c1ccccc1`, the “hERG current change (%, negative = inhibition) at 1uM” value is listed as 15%.
As for `O=C1Nc2cc(Cl)ccc2Nc2cscc21`, the “hERG current change (%, negative = inhibition) at 1uM” value is given as 11.7%.
Then `Cc1cccc(-n2c(SCC(=O)Nc3ncc(Cl)cc3Cl)nc3ccccc32)c1`, with 16.8%; and `CCOC(=O)C1(CC2CC2)CCN(Cc2cnc(-c3ccc(OC)cc3)nc2)CC1`, with 11.7%.
Then `Cc1ccc(C(=O)Nc2ccc(S(=O)(=O)N3CCOCC3)cc2)cc1C`, with 10.5%; and `O=C(Cn1c(=O)oc2ccc(Cl)cc21)NC1CCCCC1`, with 15%; and `CCOC(=O)CSc1nc2c(c(=O)n(Cc3ccccc3Cl)c(=O)n2C)n1C`, with 9.65%.
Then `CC(C)c1ccc(CNNC(=O)c2ccccc2)cc1`, with 12%; and `CCOC(=O)N1CCN(Cc2nc(N)nc(Nc3ccc(Oc4ccccc4)cc3)n2)CC1`, with -36.8%.
As for `CC1=NN(C(=O)c2ccccc2)C(O)(c2ccc(Br)cc2)C1` (centres unmarked), the “hERG current change (%, negative = inhibition) at 1uM” value was determined as 14.8%.
Turning to `CC(=O)c1cccc(CN2CCCC(CCC(=O)NCc3ccc(F)c(F)c3)C2)c1` (centres unmarked), the “hERG current change (%, negative = inhibition) at 1uM” value is given as -39.3%.
Then `COc1ccc(N2CCN(C(=O)Cc3ccc(Cl)cc3)CC2)cc1`, with 13.4%; and `COc1cccc(S(=O)(=O)Nc2noc3ccccc23)c1`, with 14%; and `O=c1[nH]ncn1-c1ccc(Br)cc1`, with 9.73%.
For `CCc1nn(CC(=O)NCCC(C)C)c(=O)c2cc3c(OC)cccc3n12`, the “hERG current change (%, negative = inhibition) at 1uM” value is 12.3%.
As to `CCOc1ccccc1NC(=O)c1ccc2c(c1)C(=O)N(CC1CCCO1)C2=O` (centres unmarked), the “hERG current change (%, negative = inhibition) at 1uM” value is recorded as 13.7%.
Then `CC(C)Cc1ccc(-c2cc(=O)[nH][nH]2)cc1`, with 8.03%; and `Cc1nc(SCC(=O)N2CCc3ccccc32)n[nH]1`, with 12.6%.
The result for `CCCCOC(=O)Nc1ccccc1C(=O)OC` reads 4.58%.
The result for `COc1ccc(-c2cc(=O)oc3cc(O)ccc23)cc1` reads 14.3%; that for `NS(=O)(=O)c1ccc(N/C=C/C(=O)c2ccc(Br)cc2)cc1`, 10.5%; that for `O=c1c2ccccc2n2cnnc2n1-c1ccccc1`, 2.26%.
With `Cc1ccc(-n2nc(C)cc2N)c(C)c1.Cl`, the “hERG current change (%, negative = inhibition) at 1uM” value turned out to be 13.5%.
Consider `Cc1nc(C(=O)NNC(=O)c2ccccc2Cl)c(C(F)(F)F)o1`, for which the “hERG current change (%, negative = inhibition) at 1uM” value was 11.7%.
Take `COc1ccc(C(=O)CSc2n[nH]c(=O)[nH]c2=O)cc1`: the “hERG current change (%, negative = inhibition) at 1uM” value stood at 12.4%.
Regarding `COC(=O)NNC(=O)COc1ccc(Cl)cc1`, the “hERG current change (%, negative = inhibition) at 1uM” value was -11.4%.
Then `Cc1nn(C)c(C)c1Sc1ccccc1N`, with 14.4%.
Consider `COc1ccc(CNC(=O)CSCc2cccc(Cl)c2)cc1`, for which the “hERG current change (%, negative = inhibition) at 1uM” value was 6.58%.
Then `COc1cc(NC(=O)CCNS(=O)(=O)c2ccc3c(c2)CCC(=O)N3)cc(OC)c1`, with 11.6%; and `CN(CC(=O)Nc1ccc(Cl)c(C(F)(F)F)c1)C(=O)C1CC(=O)N(Cc2ccco2)C1` (centres unmarked), with 6.39%.
Then `COc1ccc(CC2(CO)CCN(Cc3cnn(-c4ccccc4OC)c3)CC2)cc1`, with -48.4%; and `COc1cccc(-n2nc(C(C)=O)c(=O)[nH]c2=O)c1`, with 11.4%.
The result for `O=C(Cc1ccc(Br)cc1)NNC(=O)Nc1ccc(Cl)cc1` reads 12.9%; that for `O=C(NNC(=O)c1ccc2ccccc2c1O)c1cccs1`, 12.6%.
Turning to `COc1ccc2o/c(=N\O)c(C(=O)Nc3ccccc3OC)cc2c1`, the “hERG current change (%, negative = inhibition) at 1uM” value came to 15.1%.
The result for `O=C(NCc1ccccc1)c1ccc(S(=O)(=O)N2CCCC2)cc1` reads 2.43%.
Then `CC(=O)Nc1nonc1-c1nc2ccccc2n1CCC#N`, with 10.3%.
The result for `CCC(NC(=O)c1cc(COc2ccc(C)nc2)on1)c1ccc(C)cc1` (centres unmarked) reads 4.56%; that for `COc1cccc(CN2CC(C(=O)NC3(c4ccccc4)CC3)CCC2=O)c1` (centres unmarked), 7.97%.
As to `COC(=O)c1ccc(CSc2nnc(NC(=O)C3CCCO3)s2)cc1` (centres unmarked), the “hERG current change (%, negative = inhibition) at 1uM” value is recorded as 1.91%.
Then `COc1ccc(CCC(=O)O)c(O)c1`, with 7.81%.
With `COc1ccc(CC(CC(=O)O)C(=O)Nc2ccc(OC)cc2)cc1` (centres unmarked), the “hERG current change (%, negative = inhibition) at 1uM” value came to 7.68%.
For the molecule `CCOc1ccc(CCNC(=O)CSCC(=O)Nc2ccc(OC)cc2)cc1OCC`, the “hERG current change (%, negative = inhibition) at 1uM” value was determined as 8.24%.
Then `O=C(OCc1ccc(Br)cc1)c1cnc(Cl)c(Cl)c1`, with 15.3%.
`CC(C)Cc1nc(Nc2ccccc2C#N)c2nnn(Cc3ccccc3)c2n1`: the “hERG current change (%, negative = inhibition) at 1uM” value is given as -5.32%.
`Cn1c(=O)[nH]c(=O)c2c1nc(SCC(=O)O)n2Cc1ccccc1`: the “hERG current change (%, negative = inhibition) at 1uM” value was found to be 6.06%.
Then `CCC(CC)NC(=O)COC(=O)c1ccc(OCC(=O)Nc2ccccc2OC)c(OC)c1`, with 16.8%; and `O=C(OCN1C(=O)C(=O)c2ccccc21)c1ccc(Cl)cc1`, with 21.3%.
Then `Cc1cc([N+](=O)[O-])cc2c1-c1ncccc1C2=Nc1ccccc1`, with -2.86%; and `O=C(Nc1ccc(Cl)c(S(=O)(=O)N2CCCCC2)c1)C1=COCCO1`, with 1.21%.
Then `Cl.OCCCCNCc1ccc(OCc2ccc(Cl)cc2Cl)cc1`, with -0.92%; and `O=C(Nc1ccccc1)Nc1nnc(COc2ccccc2F)s1`, with 9.02%.
On to `CC(OC(=O)c1ncc(Cl)c(Cl)c1Cl)C(=O)NC1CCCCC1C` (centres unmarked), for which the “hERG current change (%, negative = inhibition) at 1uM” value came to 17.3%.
Then `CC1(C)CC(C(=O)Nc2nccs2)CCO1` (centres unmarked), with 1.96%; and `CSCC(C)N1CCC(n2nccc2NC(=O)CCOc2ccccc2)CC1` (centres unmarked), with 13.7%.
Then `COc1ccccc1N1CCN(C(=O)c2c(C)cc(=O)oc2C)CC1`, with 17.5%.
The result for `Cc1cc(C)c(C(=O)CSc2nnc(C)s2)c(C)c1` reads 26.7%.
As to `CCOc1ccc(OCC)c(NC(=O)CSc2nnc(-c3cccnc3)o2)c1`, the “hERG current change (%, negative = inhibition) at 1uM” value amounted to 6.71%.
Then `CCOC(=O)C(=O)Nc1nnc(CCc2ccccc2)s1`, with 11.4%; and `O=C(O)CP(=O)(c1ccccc1)c1ccccc1`, with 16%; and `O=C1NCC(c2ccccc2)C1C(=O)N/N=C/c1ccc(Cl)s1` (centres unmarked), with 8.95%.
Consider `O=C(CN1C(=O)NC2(CCCC2)C1=O)NCC1CCCO1` (centres unmarked), for which the “hERG current change (%, negative = inhibition) at 1uM” value amounted to 9.93%.
Then `COc1ccccc1CNC(=O)CCN1C(=O)COc2ccc(C)cc21`, with 16%.
The result for `Cc1ccc(S(=O)(=O)Nc2ccc(SC(F)F)cc2)c(C)c1` reads 13%; that for `O=C(c1ccc(F)cc1)N1CCC(C(=O)N2CCN(S(=O)(=O)c3ccccc3Br)CC2)CC1`, 4.59%.
The result for `COc1cc2c(cc1OC)C(C)N(C(=O)C1=NN(c3cccc(C)c3)C(=O)CC1)CC2` (centres unmarked) reads 10.3%; that for `COc1ccc(CCNC(=O)Nc2cccc([N+](=O)[O-])c2)cc1OC`, 5.22%; that for `Cc1cc(C)c(S(C)(=O)=O)c(NN)n1`, 14%.
On to `COC(=O)c1scc(C)c1NC(=O)c1ccc(Cl)cc1`, for which the “hERG current change (%, negative = inhibition) at 1uM” value is given as 5.49%.
On to `O=C(COc1ccc(Cl)cc1Cl)N/N=C/c1ccc(OC2OC(CO)C(O)C(O)C2O)cc1` (centres unmarked), for which the “hERG current change (%, negative = inhibition) at 1uM” value is on record as -0.123%.
Take `COc1ccc(NC(=O)O/N=C/c2ccc(N(C)C)cc2)cc1`: the “hERG current change (%, negative = inhibition) at 1uM” value amounted to 9.08%.
For the molecule `Cc1cccc(C#Cc2ccccc2)n1.Cl`, the “hERG current change (%, negative = inhibition) at 1uM” value is 4.55%.
The result for `Cc1c(C(=O)NCc2cccnc2)oc2ccc(S(=O)(=O)N3CCCC(C)C3)cc12` (centres unmarked) reads 6.31%; that for `COCCSc1ccccc1C(=O)NCc1cccnc1`, 10.6%.
Then `Cc1cc(C)n(CCO)c(=O)n1.Cl`, with 25.3%; and `CC(C)c1ccc(NC(=O)CSc2nc(=O)[nH]c3c2CCCC3)cc1`, with 4.46%; and `Cc1cccc(NC(=O)c2ccc(NCC3CCCO3)c([N+](=O)[O-])c2)c1` (centres unmarked), with 5.6%.
Then `O=C(C1CCCN(S(=O)(=O)c2cccc3nsnc23)C1)N1CCc2ccccc21` (centres unmarked), with 0.421%; and `COc1cc(OC)c([N+](=O)[O-])cc1/C=N/NC(=O)c1ccncc1`, with 0.0289%.
Take `COc1cc(O)c(C(CCN2CCOCC2)c2ccc(N(C)C)cc2)c(OC)c1` (centres unmarked): the “hERG current change (%, negative = inhibition) at 1uM” value worked out at 6.59%.
The result for `O=C(c1cc(Cl)ccc1O)N1CCN(S(=O)(=O)c2cccs2)CC1` reads 18.9%.
On to `COc1ccccc1C(=O)C1CCCN(Cc2cccc(OCCO)c2)C1` (centres unmarked), for which the “hERG current change (%, negative = inhibition) at 1uM” value turned out to be 2.04%.
The result for `CC(C)N(CCCNC(=O)C1CCC(CNS(=O)(=O)c2ccccc2)CC1)Cc1ccccc1` (centres unmarked) reads 3.8%; that for `COc1ccc(OC)c(NC(=O)c2cccnc2Sc2cc(C)ccc2C)c1`, 6.65%; that for `Cc1c(-c2ccccc2)oc2c(C(=O)N3CCN(c4ccc([N+](=O)[O-])cc4)CC3)cccc2c1=O`, -20.1%.
The result for `CCCC(c1nnnn1CS(=O)(=O)c1ccc(C)cc1)N1CCN(c2ccc(F)cc2)CC1` (centres unmarked) reads 2.29%.
The result for `Cc1ccccc1N1CCN(C2CCCN(C(=O)Cc3c(C)noc3C)C2)CC1` (centres unmarked) reads 3.96%.
In the case of `CCOc1ccc(/C=C/C(=O)OCC(=O)Nc2cccc(S(=O)(=O)N3CCCC3)c2)cc1`, the “hERG current change (%, negative = inhibition) at 1uM” value is recorded as -3.07%.
The result for `CCOC(=O)C1=C(c2cccc(F)c2)NC(=S)NC1C` (centres unmarked) reads -8.98%; that for `CCOC(=O)c1sc2nc(NC(=O)COc3ccccc3)sc2c1C`, 18.4%.
As to `Cc1onc(-c2c(Cl)cccc2Cl)c1CO/N=C(\C#N)c1c(Cl)cccc1Cl`, the “hERG current change (%, negative = inhibition) at 1uM” value was 11.4%.
As for `O=C(NCc1cccnc1)Nc1ccc(Cl)cc1`, the “hERG current change (%, negative = inhibition) at 1uM” value was -18.3%.

Source of the values: paper PMC4336329 (PLoS ONE, 2015).
